{
  "source": "the supplement of paper PMC9446081",
  "note": "About 220 (0.56%) of roughly 39,000 compounds showed activity. Some of the results follow.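 Also: static incubation at 37 °C against the wild-type strain, values averaged over two biological replicates.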",
  "data": [
    {"tested_on": "Escherichia coli K-12 BW25113", "experiment": "relative growth (OD600 normalised to plate interquartile mean) (fraction); higher = less growth inhibition, active = 0.2 or less", "settings": "50 µM; LB; incubation time: overnight (16-24 h)", "values": [
      {"molecule": "Cc1noc(C)c1NC(=O)N(C)C[C@H]1Oc2ccc(NS(=O)(=O)c3ccccc3)cc2CC(=O)N([C@@H](C)CO)C[C@@H]1C", "relative growth": "inactive: 1.01"},
      {"molecule": "C[C@@H]1CCCCO[C@H](CN(C)C)[C@H](C)CN([C@@H](C)CO)C(=O)c2cc(NC(=O)Nc3ccc(C(F)(F)F)cc3)ccc2O1", "relative growth": "inactive: 0.982"},
      {"molecule": "CC(C)NC(=O)Nc1ccc2c(c1)C(=O)N([C@H](C)CO)C[C@@H](C)[C@@H](CN(C)S(=O)(=O)c1cn(C)cn1)OCCCC[C@H](C)O2", "relative growth": "inactive: 1.02"},
      {"molecule": "C=c1nc(C)sc1=C1NN=C(N)O1", "relative growth": "inactive: 1.02"},
      {"molecule": "CCc1[nH]c(=S)[nH]c(=O)c1C#N", "relative growth": "inactive: 1.02"},
      {"molecule": "CC(C)NC(=O)N(C)C[C@H]1OCCCC[C@H](C)Oc2ccc(NC(=O)C3CCCCC3)cc2C(=O)N([C@@H](C)CO)C[C@@H]1C", "relative growth": "inactive: 1"},
      {"molecule": "CC(C)NC(=O)Nc1ccc2c(c1)C(=O)N([C@H](C)CO)C[C@@H](C)[C@H](CN(C)Cc1ccc(-c3ccccc3)cc1)O2", "relative growth": "inactive: 1.01"},
      {"molecule": "CNC[C@@H]1OCCCC[C@H](C)Oc2ccc(NS(=O)(=O)c3cn(C)cn3)cc2C(=O)N([C@@H](C)CO)C[C@H]1C", "relative growth": "inactive: 1"},
      {"molecule": "Nc1nccnc1Cl", "relative growth": "inactive: 0.997"},
      {"molecule": "CCNC(=O)C[C@H]1C=C[C@H](NC(=O)C2CC2)[C@H](CO)O1", "relative growth": "inactive: 1.01"},
      {"molecule": "C[C@H](CO)N1C[C@H](C)[C@@H](CN(C)C(=O)Nc2cccc3ccccc23)Oc2c(NS(=O)(=O)c3ccccc3)cccc2C1=O", "relative growth": "inactive: 0.99"},
      {"molecule": "O=C1NCc2ccccc21", "relative growth": "inactive: 1.04"},
      {"molecule": "Cn1cc(-c2cc3c(N4CCN(c5ncc([C@@](C)(N)c6ccc(F)cc6)cn5)CC4)ncnn3c2)cn1", "relative growth": "inactive: 0.955"},
      {"molecule": "C[C@@H]1CN([C@@H](C)CO)C(=O)c2cc(NC(=O)Nc3ccc4c(c3)OCO4)ccc2O[C@H]1CN(C)C(=O)Nc1ccc(C(F)(F)F)cc1", "relative growth": "inactive: 1"},
      {"molecule": "C[C@@H]1CCCCO[C@H](CN(C)C(=O)c2ccncc2)[C@H](C)CN([C@H](C)CO)C(=O)c2cc(NS(=O)(=O)c3cn(C)cn3)ccc2O1", "relative growth": "inactive: 0.974"},
      {"molecule": "Cc1noc(C)c1S(=O)(=O)Nc1ccc2c(c1)C(=O)N([C@H](C)CO)C[C@H](C)[C@@H](CN(C)C(=O)Nc1ccccc1)OCCCC[C@H](C)O2", "relative growth": "inactive: 0.984"},
      {"molecule": "COc1ccc(S(=O)(=O)Nc2cccc3c2O[C@H](CN(C)S(=O)(=O)c2cn(C)cn2)[C@H](C)CN([C@@H](C)CO)C3=O)cc1", "relative growth": "inactive: 1.01"},
      {"molecule": "C[C@H](NC(=O)N(C)C[C@@H]1OCc2ccccc2-c2c(n(C)c3ccccc23)C(=O)N([C@H](C)CO)C[C@H]1C)c1ccccc1", "relative growth": "inactive: 0.982"},
      {"molecule": "C[C@H](CO)N1C[C@H](C)[C@@H](CN(C)Cc2ccc(Oc3ccccc3)cc2)Oc2ccc(NC(=O)CCCN(C)C)cc2C1=O", "relative growth": "inactive: 1"},
      {"molecule": "NCC[C@H]1CC[C@@H](NC(=O)C2CCCCC2)[C@H](CO)O1", "relative growth": "inactive: 1"},
      {"molecule": "O=C([C@@H]1[C@@H](CO)[C@@H]2Cn3c(cccc3=O)[C@H]1N2S(=O)(=O)c1ccccc1F)N1CCOCC1", "relative growth": "inactive: 0.995"},
      {"molecule": "CCCC#Cc1cnc2c(c1)C(=O)N([C@H](C)CO)C[C@H](C)[C@@H](CN(C)S(=O)(=O)c1cn(C)cn1)O2", "relative growth": "inactive: 1.01"},
      {"molecule": "C[C@@H]1CN([C@@H](C)CO)C(=O)c2cc(NC(=O)C3CC3)ccc2O[C@H]1CN(C)S(=O)(=O)c1ccc(F)cc1", "relative growth": "inactive: 0.984"},
      {"molecule": "CO[C@H]1CN(C)C(=O)c2ccc(NC(=O)C3CC3)cc2OC[C@@H](C)N(C(=O)C2CCOCC2)C[C@H]1C", "relative growth": "inactive: 1.02"},
      {"molecule": "COc1ccc(NC(=O)N(C)C[C@@H]2Oc3ccc(NS(C)(=O)=O)cc3CC(=O)N([C@@H](C)CO)C[C@H]2C)cc1", "relative growth": "inactive: 0.988"},
      {"molecule": "C[C@@H]1CN([C@H](C)CO)C(=O)Cc2cc(NC(=O)Cc3ccccc3)ccc2O[C@@H]1CN(C)S(=O)(=O)c1ccc(F)cc1", "relative growth": "inactive: 1"},
      {"molecule": "CN(Cc1[nH]nc2c1CCCC2)C(=O)Cc1n[nH]c(=O)[nH]1", "relative growth": "inactive: 0.992"},
      {"molecule": "N[C@@H]1CC[C@@H](CCn2cc(C3CCCCC3)nn2)O[C@H]1CO", "relative growth": "inactive: 1.04"},
      {"molecule": "C[C@@H]1CN([C@H](C)CO)C(=O)Cc2cc(NC(=O)CCN3CCOCC3)ccc2O[C@H]1CN(C)S(=O)(=O)c1cn(C)cn1", "relative growth": "inactive: 0.985"},
      {"molecule": "O=C(Cc1ccccn1)NCC[C@H]1CC[C@@H](NC(=O)CN2CCOCC2)[C@@H](CO)O1", "relative growth": "inactive: 1"},
      {"molecule": "Cc1cc(C(=O)O)c(=O)[nH]c1C", "relative growth": "inactive: 0.956"},
      {"molecule": "Cc1ccc(S(=O)(=O)N(C)C[C@H]2OCCCC[C@H](C)Oc3ccc(NC(=O)Nc4c(C)noc4C)cc3C(=O)N([C@H](C)CO)C[C@H]2C)cc1", "relative growth": "inactive: 1.01"},
      {"molecule": "COc1ccc(S(=O)(=O)N[C@@H]2CC[C@@H](CC(=O)N3CCC(Cc4ccccc4)CC3)O[C@H]2CO)cc1", "relative growth": "inactive: 0.987"},
      {"molecule": "CC1(C(=O)[O-])CCC2(C)CCC3(C)C(=CC(=O)C4C5(C)CCC(OC(=O)CCC(=O)[O-])C(C)(C)C5CCC43C)C2C1.[Na+].[Na+]", "note": "(stereo not given)", "relative growth": "inactive: 1.06"},
      {"molecule": "C[C@@H]1CCCCO[C@H](CN(C)Cc2ccccc2)[C@H](C)CN([C@H](C)CO)C(=O)c2cc(NC(=O)c3ccccc3)ccc2O1", "relative growth": "inactive: 1"},
      {"molecule": "CC(C)NC(=O)N(C)C[C@@H]1OCCCC[C@H](C)Oc2ccc(NC(=O)Nc3ccccc3)cc2C(=O)N([C@@H](C)CO)C[C@H]1C", "relative growth": "inactive: 0.983"},
      {"molecule": "Cc1ccc(S(=O)(=O)N(C)C[C@H]2Oc3ccc(NC(=O)Nc4ccc(C(F)(F)F)cc4)cc3C(=O)N([C@@H](C)CO)C[C@@H]2C)cc1", "relative growth": "inactive: 0.984"},
      {"molecule": "C[C@@H]1CN([C@H](C)CO)C(=O)Cc2cc(NC(=O)Cn3cnnn3)ccc2O[C@H]1CN(C)Cc1ccc(C(=O)O)cc1", "relative growth": "inactive: 1"},
      {"molecule": "C[C@@H]1CN([C@@H](C)CO)C(=O)c2cc(NC(=O)NC3CCCCC3)ccc2O[C@@H](C)CCCCO[C@@H]1CN(C)C(=O)Cc1ccccc1", "relative growth": "inactive: 1.02"},
      {"molecule": "O=C(O)C1=CO[C@@H](O[C@@H]2O[C@H](CO)[C@@H](O)[C@H](O)[C@H]2O)[C@@H]2C(CO)=CC[C@H]12", "relative growth": "inactive: 0.976"}
    ]}
  ]
}
